± gives the standard error. The list shows a part of the results.
biological target: terminal deoxynucleotidyl transferase (calf thymus) (UniProt P06526); test: TdT poly-dT extension signal (Cy3 hybridisation fluorescence, uncapped minus capped) (fluorescence a.u.); higher = more efficient initiation of TdT extension; details: initiator chemistry: 2'-O-methyl-RNA, free 3'-OH (5'-tethered via HEG linker)
Procedure, shortened: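 Mono- to pentamer initiators were made by photolithographic in situ synthesis on glass on a hexaethylene glycol linker, each as uncapped and DMTr-dT-capped replicates. Arrays were extended with 0.2 u/μL calf thymus TdT and 100 μM dTTP in TdT buffer plus 0.25 mM CoCl2 at 37 °C for 120 min, hybridized with Cy3-labelled rA18 probe at 4 °C and scanned at 532 nm. Extension signal is mean uncapped minus mean capped (background) fluorescence.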

Chain of UniProt P06526 (P06526 whole entry): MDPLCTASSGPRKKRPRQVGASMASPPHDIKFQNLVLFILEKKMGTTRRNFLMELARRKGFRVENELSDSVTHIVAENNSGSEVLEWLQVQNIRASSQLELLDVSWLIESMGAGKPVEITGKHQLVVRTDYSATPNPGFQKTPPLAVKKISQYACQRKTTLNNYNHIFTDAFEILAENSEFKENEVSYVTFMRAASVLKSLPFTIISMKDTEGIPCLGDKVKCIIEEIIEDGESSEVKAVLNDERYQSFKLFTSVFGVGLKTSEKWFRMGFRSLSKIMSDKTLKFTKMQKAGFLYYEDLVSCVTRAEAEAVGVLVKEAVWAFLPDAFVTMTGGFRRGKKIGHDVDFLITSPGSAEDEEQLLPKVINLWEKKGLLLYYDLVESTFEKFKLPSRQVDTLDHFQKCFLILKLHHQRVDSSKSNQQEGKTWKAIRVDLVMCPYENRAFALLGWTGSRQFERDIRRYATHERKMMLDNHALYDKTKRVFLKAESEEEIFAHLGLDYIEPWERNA

Sequence	TdT poly-dT extension signal
CAUG	261 ± 26
CUUGU	405 ± 29
GACAG	523 ± 35
UUGGC	900 ± 58
AAUGU	335 ± 20
CAACU	313 ± 34
CAAUC	501 ± 34
GCGCU	323 ± 25
GUAC	547 ± 50
CAUCU	240 ± 15
AUCUA	549 ± 22
UUAAG	388 ± 34
AAUC	379 ± 27
CAAA	1010 ± 77
UGCCG	220 ± 14
UGGCG	298 ± 49
GUGUG	186 ± 13
UUAUA	375 ± 34
CUGA	486 ± 62
AAAGG	370 ± 28
AAGUG	222 ± 24
CAAG	600 ± 36

Sequence	TdT poly-dT extension signal
GCACG	295 ± 16
UCGCA	463 ± 31
GCGAU	449 ± 42
ACUG	278 ± 17
UCAUC	439 ± 34
UAUC	366 ± 18
ACGU	432 ± 32
GAAUU	321 ± 24
AAUAU	312 ± 32
GGUUG	148 ± 9.2
GGCAA	925 ± 89
GGCAG	414 ± 45
AUUCU	281 ± 19
AACGA	620 ± 72
GCAG	492 ± 30
AGAUA	525 ± 31
CCUU	343 ± 26
UUGCA	327 ± 16
GAAUG	223 ± 21
CGACG	340 ± 17
CGUGU	349 ± 21
AAAUG	230 ± 12

Sequence	TdT poly-dT extension signal
CUGUA	359 ± 18
GCGUC	542 ± 34
CGUUU	232 ± 14
UAAAU	517 ± 37
AGGAC	668 ± 50
GGCGA	646 ± 96
UUAGG	271 ± 26
AUCCC	442 ± 30
GGCUC	639 ± 31
CUUGG	179 ± 20
GGUGU	484 ± 37
ACUGC	922 ± 88
CAUGC	1140 ± 140
CGAUC	441 ± 30
CUUU	233 ± 21
UCAAG	688 ± 49
GUGU	411 ± 18
UCUAC	504 ± 25
GUUGG	187 ± 14
AUAUU	250 ± 11
CUGCC	503 ± 48
CUAUU	224 ± 30

Sequence	TdT poly-dT extension signal
GAUUC	423 ± 31
GGGCG	330 ± 32
UUCCU	241 ± 17
UGUG	149 ± 15
AUGUG	141 ± 13
GCCGC	999 ± 83
GCACA	482 ± 81
UUAA	535 ± 45
CUUAU	257 ± 25
ACAU	483 ± 30
CUAAA	792 ± 51
CAUUA	375 ± 18
ACCAU	456 ± 28
UCCU	351 ± 31
AAUUA	354 ± 22
AAUUC	348 ± 32
GGUUC	426 ± 69
AUCGA	487 ± 30
GUGCC	523 ± 29
CUUUG	145 ± 13
AUUUG	120 ± 8.5
UACU	225 ± 13

Sequence	TdT poly-dT extension signal
CCGG	326 ± 47
UAGAA	1060 ± 95
GAAGA	957 ± 160
GCCGA	606 ± 70
UCUGU	319 ± 22
UGCCC	519 ± 28
GAAAG	560 ± 51
GAAAU	512 ± 38
GCCUC	636 ± 30
GCGUG	298 ± 34
AUCG	210 ± 18
CAAGU	608 ± 48
CGCAU	490 ± 26
ACUUU	291 ± 24
GUAUG	157 ± 12
GCGGC	844 ± 55
UCCGA	597 ± 38
CGCCC	432 ± 29
UAGGG	313 ± 21
CGGCU	341 ± 24
